# According to publication PMC5892938:
# Some of the results follow. At the low end of the ranking the order means little.
# Biological target: GST-SBP-SLBP (stem-loop binding protein) (UniProt Q14493)
# Assay: targeted RNA Bind-n-Seq;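 further: DESeq read counts versus GST-SBP nonspecific binding control pulldown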
# Settings: RBNS binding buffer: 25 mM Tris pH 7.5, 150 mM KCl, 3 mM MgCl2, 0.1% Tween, 0.5 mg/mL BSA, 1 mM DTT; 27 nM protein, 750 pM RNA pool; temperature not stated; high values mean tight binding
row,Sequence,binding signal (log2 fold change)
1,GGUCACGUCUCAAUCAACUCAACUCCAGGAGUUUCCUCCUGUUUACUCAACAGCUCGCAGUCAAG,0.117
2,GGUCACGUCUCAAUCAACUCACAAGAGGGGGGGAAAACCCCUUUGCCCUCCACAUCAACAGCUCGCAGUCAAG,0.146
3,GGUCACGUCUCAAUCAACUCUACUCCAGGAGUUUCCUCCUGUAUAUUCAACAGCUCGCAGUCAAG,0.217
4,GGUCACGUCUCAAUCAACUCAAUUCCCAGGGAAAGCCCUGGCAUAUUCAACAGCUCGCAGUCAAG,-0.122
5,GGUCACGUCUCAAUCAACUCAUUAGAGGGGGGGAAAACCCCUUUGCCCUCAAUUUCAACAGCUCGCAGUCAAG,0.237
6,GGUCACGUCUCAAUCAACUCAUUUUCAGGAGUUUCCUCCUGUUUUCUCAACAGCUCGCAGUCAAG,-0.0372
7,GGUCACGUCUCAAUCAACUCAAGUCCAGGAGUUUUCUCCUGCUAUUUCAACAGCUCGCAGUCAAG,-0.114
8,GGUCACGUCUCAAUCAACUCAGUCCCAGGAGUUUACUCCUGUUUAUUCAACAGCUCGCAGUCAAG,0.0578
9,GGUCACGUCUCAAUCAACUCUUUUUCCAGGGAAACCCCUGGUAGUCUCAACAGCUCGCAGUCAAG,-0.1
10,GGUCACGUCUCAAUCAACUCACAAGAGGGGGGGAAAACCCCUUUACCCUCGUCAUCAACAGCUCGCAGUCAAG,-0.132
11,GGUCACGUCUCAAUCAACUCUUCUCCAGGAGUUUCCUCCUGUAAUCUCAACAGCUCGCAGUCAAG,-0.0655
12,GGUCACGUCUCAAUCAACUCAGUUUCAGGAGUUUGCUCCUGCAUUUUCAACAGCUCGCAGUCAAG,0.0209
13,GGUCACGUCUCAAUCAACUCUUUCUCAGGAGUUUUCUCCUGCAUUUUCAACAGCUCGCAGUCAAG,-0.204
14,GGUCACGUCUCAAUCAACUCAAUCUCCAGGGAAAUCCCUGGCAAUCUCAACAGCUCGCAGUCAAG,0.0266
15,GGUCACGUCUCAAUCAACUCUAAAGAGGGGGGGAAAACCCCUUUACCCUCAACCUCAACAGCUCGCAGUCAAG,0.0753
16,GGUCACGUCUCAAUCAACUCAUCUCCCAGGGAAAGCCCUGGUAUACUCAACAGCUCGCAGUCAAG,-0.0898
17,GGUCACGUCUCAAUCAACUCUUUCGAGGGGGGGAAAACCCCUUUACCCUCACUCUCAACAGCUCGCAGUCAAG,-0.045
18,GGUCACGUCUCAAUCAACUCUUUCCCCAGGGAAAGCCCUGGCUUUUUCAACAGCUCGCAGUCAAG,-0.108
19,GGUCACGUCUCAAUCAACUCUUUUUCCAGGGAAAACCCUGGCGUUUUCAACAGCUCGCAGUCAAG,-0.226
20,GGUCACGUCUCAAUCAACUCAAUCCCAGGAGUUUCCUCCUGUUAUGUCAACAGCUCGCAGUCAAG,0.0684
21,GGUCACGUCUCAAUCAACUCUAUCCCCAGGGAAACCCCUGGUAAACUCAACAGCUCGCAGUCAAG,-0.386
22,GGUCACGUCUCAAUCAACUCAUUCCCCAGGGAAAUCCCUGGUAGUCUCAACAGCUCGCAGUCAAG,-0.166
23,GGUCACGUCUCAAUCAACUCUAUCUCCAGGGAAACCCCUGGCUUUCUCAACAGCUCGCAGUCAAG,0.169
24,GGUCACGUCUCAAUCAACUCAUUCUCCAGGGAAAGCCCUGGUUAUUUCAACAGCUCGCAGUCAAG,0.192
25,GGUCACGUCUCAAUCAACUCUCCCGAGGGGGGGAAAACCCCUUUACCCUCUCCAUCAACAGCUCGCAGUCAAG,-0.00214

row,Sequence,binding signal (log2 fold change)
1,GGUCACGUCUCAAUCAACUCAUCUUCAGGAGUUUUCUCCUGCUUUUUCAACAGCUCGCAGUCAAG,-0.0637
2,GGUCACGUCUCAAUCAACUCUAUCUCCAGGGAAAGCCCUGGUAAACUCAACAGCUCGCAGUCAAG,0.117
3,GGUCACGUCUCAAUCAACUCUUUCCCCAGGGAAACCCCUGGCAUUCUCAACAGCUCGCAGUCAAG,0.163
4,GGUCACGUCUCAAUCAACUCAUUAGAGGGGGGGAAAACCCCUUUGCCCUCAUUAUCAACAGCUCGCAGUCAAG,-0.0671
5,GGUCACGUCUCAAUCAACUCAUCUCCCAGGGAAAACCCUGGCAAACUCAACAGCUCGCAGUCAAG,-0.314
6,GGUCACGUCUCAAUCAACUCUUUCCCCAGGGAAAUCCCUGGUAUUCUCAACAGCUCGCAGUCAAG,0.0453
7,GGUCACGUCUCAAUCAACUCAACUUCAGGAGUUUGCUCCUGCAUUCUCAACAGCUCGCAGUCAAG,-0.149
8,GGUCACGUCUCAAUCAACUCCAUAGAGGGGGGGAAAACCCCUUUACCCUCACAUUCAACAGCUCGCAGUCAAG,0.32
9,GGUCACGUCUCAAUCAACUCUCAAGAGGGGGGGAAAACCCCUUUGCCCUCAUUAUCAACAGCUCGCAGUCAAG,0.288
10,GGUCACGUCUCAAUCAACUCUUCAGAGGGGGGGAAAACCCCUUUGCCCUCACAAUCAACAGCUCGCAGUCAAG,0.147
11,GGUCACGUCUCAAUCAACUCCCAAAGGUUUUUUUUAGAGCCACCCAUCAACAGCUCGCAGUCAAG,0.324
12,GGUCACGUCUCAAUCAACUCAUCCUCCAGGGAAAACCCUGGCUAACUCAACAGCUCGCAGUCAAG,0.102
13,GGUCACGUCUCAAUCAACUCCCUCGAGGGGGGGAAAACCCCUUUACCCUCUUCAUCAACAGCUCGCAGUCAAG,-0.0827
14,GGUCACGUCUCAAUCAACUCAGUCCCAGGAGUUUGCUCCUGCUUAUUCAACAGCUCGCAGUCAAG,-0.0718
15,GGUCACGUCUCAAUCAACUCAUUCCCCAGGGAAACCCCUGGCAAUUUCAACAGCUCGCAGUCAAG,0.108
16,GGUCACGUCUCAAUCAACUCUUCUUCCAGGGAAAACCCUGGUUAACUCAACAGCUCGCAGUCAAG,0.0635
17,GGUCACGUCUCAAUCAACUCAGUUCCCAGGGAAAUCCCUGGCUUUUUCAACAGCUCGCAGUCAAG,-0.0744
18,GGUCACGUCUCAAUCAACUCAAUCCCCAGGGAAACCCCUGGCAUUCUCAACAGCUCGCAGUCAAG,0.134
19,GGUCACGUCUCAAUCAACUCUUUUCCCAGGGAAAUCCCUGGUUAUUUCAACAGCUCGCAGUCAAG,-0.103
20,GGUCACGUCUCAAUCAACUCAACUUCAGGAGUUUUCUCCUGUAAACUCAACAGCUCGCAGUCAAG,0.13
21,GGUCACGUCUCAAUCAACUCAUUUUCAGGAGUUUACUCCUGUUUUUUCAACAGCUCGCAGUCAAG,-0.0154
22,GGUCACGUCUCAAUCAACUCAAGUCCAGGAGUUUACUCCUGUUAUUUCAACAGCUCGCAGUCAAG,0.142
23,GGUCACGUCUCAAUCAACUCUAUAGAGGGGGGGAAAACCCCUUUACCCUCAACAUCAACAGCUCGCAGUCAAG,-0.0627
24,GGUCACGUCUCAAUCAACUCUUUCCCAGGAGUUUACUCCUGUAAUGUCAACAGCUCGCAGUCAAG,0.203
25,GGUCACGUCUCAAUCAACUCAACUUCAGGAGUUUGCUCCUGCUAUGUCAACAGCUCGCAGUCAAG,0.282

row,Sequence,binding signal (log2 fold change)
1,GGUCACGUCUCAAUCAACUCUUUUCCCAGGGAAAGCCCUGGCAAUUUCAACAGCUCGCAGUCAAG,0.113
2,GGUCACGUCUCAAUCAACUCAUUUCCAGGAGUUUUCUCCUGUAUACUCAACAGCUCGCAGUCAAG,-0.0628
3,GGUCACGUCUCAAUCAACUCAAUCUCAGGAGUUUGCUCCUGCUAUGUCAACAGCUCGCAGUCAAG,0.227
4,GGUCACGUCUCAAUCAACUCCACAGAGGGGGGGAAAACCCCUUUACCCUCAUUAUCAACAGCUCGCAGUCAAG,-0.0477
5,GGUCACGUCUCAAUCAACUCUUCCCCCAGGGAAAUCCCUGGCAAACUCAACAGCUCGCAGUCAAG,0.202
6,GGUCACGUCUCAAUCAACUCUAUCCCCAGGGAAAGCCCUGGCAUUCUCAACAGCUCGCAGUCAAG,-0.081
7,GGUCACGUCUCAAUCAACUCCCACGAGGGGGGGAAAACCCCUUUACCCUCCACAUCAACAGCUCGCAGUCAAG,0.0749
8,GGUCACGUCUCAAUCAACUCAAUCUCAGGAGUUUGCUCCUGCAAUUUCAACAGCUCGCAGUCAAG,-0.0391
9,GGUCACGUCUCAAUCAACUCAGUCCCAGGAGUUUACUCCUGCAUAUUCAACAGCUCGCAGUCAAG,0.00248
10,GGUCACGUCUCAAUCAACUCUUUCCCCAGGGAAAGCCCUGGUUUUUUCAACAGCUCGCAGUCAAG,0.101
11,GGUCACGUCUCAAUCAACUCUACUCCCAGGGAAAACCCUGGUAUUCUCAACAGCUCGCAGUCAAG,0.013
12,GGUCACGUCUCAAUCAACUCAUUCUCAGGAGUUUACUCCUGUAUUCUCAACAGCUCGCAGUCAAG,0.0676
13,GGUCACGUCUCAAUCAACUCAUUCCCAGGAGUUUUCUCCUGUUUUUUCAACAGCUCGCAGUCAAG,0.0221
14,GGUCACGUCUCAAUCAACUCCUUAGAGGGGGGGAAAACCCCUUUACCCUCAAUUUCAACAGCUCGCAGUCAAG,-0.127
15,GGUCACGUCUCAAUCAACUCAGUUUCCAGGGAAAGCCCUGGCUUUUUCAACAGCUCGCAGUCAAG,0.3
16,GGUCACGUCUCAAUCAACUCUUUCCCAGGAGUUUACUCCUGUAUUUUCAACAGCUCGCAGUCAAG,-0.0022
17,GGUCACGUCUCAAUCAACUCUUUCCCAGGAGUUUUCUCCUGCUAUCUCAACAGCUCGCAGUCAAG,0.0568
18,GGUCACGUCUCAAUCAACUCUCCUGAGGGGGGGAAAACCCCUUUACCCUCCAAAUCAACAGCUCGCAGUCAAG,-0.0371
19,GGUCACGUCUCAAUCAACUCUACUUCAGGAGUUUUCUCCUGUUUUCUCAACAGCUCGCAGUCAAG,-0.0434
20,GGUCACGUCUCAAUCAACUCAAUCCCCAGGGAAAUCCCUGGCUAAUUCAACAGCUCGCAGUCAAG,-0.221
21,GGUCACGUCUCAAUCAACUCAUUCCCAGGAGUUUCCUCCUGUAAUCUCAACAGCUCGCAGUCAAG,0.0845
22,GGUCACGUCUCAAUCAACUCACAAGAGGGGGGGAAAACCCCUUUGCCCUCGAAUUCAACAGCUCGCAGUCAAG,0.144
23,GGUCACGUCUCAAUCAACUCAAUUUCAGGAGUUUACUCCUGCUAUGUCAACAGCUCGCAGUCAAG,0.0954
24,GGUCACGUCUCAAUCAACUCAUCUUCCAGGGAAAUCCCUGGUUUAUUCAACAGCUCGCAGUCAAG,0.0547
